PubChem BioAssay AID504832 (National Center for Advancing Translational Sciences (NCATS), 2011)
“And” between values parts separate entries of the source, which are not always exact repeats. Equal entries are not always repeated. Out of some 310,000 compounds screened, about 18,000 (5.8%) were called active. Inconclusive means that the source gave no clear call. Such entries were picked first, then a sample of the others. The call rests on the fitted dose curve; in most records, active means well fitted inhibition curve with a large enough effect; inconclusive means small, poorly fitted or top-dose-only effect, or another doubt; inactive means no such curve, though single readings can be large or run the other way. A potency beside an inconclusive call is a rough fit, not a confirmed value.

Test: Primary qHTS for delayed death inhibitors of the malarial parasite plastid, 48 hour incubation
Details: P. falciparum luciferase growth in erythrocytes; series mostly up to 28.7 µM
In short: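 Here the parasites carry a stable luciferase gene and grow inside erythrocytes in Albumax-based RPMI medium with compound for one erythrocytic cycle. Activity is scored as loss of luminescent signal.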
Potency means the concentration at half of the fitted maximal effect; tags describe the fitted curve by direction and shape.

Row | SMILES | Potency
1 | CC1(C)OC2CC3C4CC(F)C5=CC(=O)C=CC5(C)C4(F)C(O)CC3(C)C2(C(=O)CO)O1 (stereo unspecified) | inconclusive: 10.4 µM [inhibitor, single point]
2 | CC(=O)c1ccc(NC(=S)NCCc2ccccn2)cc1 | inactive
3 | Fc1ccc(N/N=C2/CC(c3ccccc3)Oc3ccccc32)c(F)c1 (stereo unspecified) | inconclusive: 18.5 µM [inhibitor, partial curve, poor fit]
4 | CCN(CC)C(=O)CCSc1nnc(-c2ccncc2)o1 | inactive
5 | CN1CCN(S(=O)(=O)c2cccc(C(=O)Nc3sccc3C#N)c2)CC1 | inconclusive: 13.1 µM [inhibitor, single point]
6 | CC1=C(C(=O)OCc2ccccc2)C(c2ccccc2[N+](=O)[O-])NC(=O)N1C (stereo unspecified) | inactive
7 | CC1CCCC(C)N1C(=O)CSc1nnnn1-c1cccc2c1CCCC2 (stereo unspecified) | inconclusive: 11.7 µM [inhibitor, single point]
8 | O=C(N/N=C/c1ccc([N+](=O)[O-])o1)c1cn(-c2ccccc2)nc1-c1ccccc1 | inconclusive: 18.5 µM [inhibitor, single point]
9 | Cc1ccc(C2CN(C)C3(C(=O)Nc4ccccc43)C23COc2ccccc2C3=O)cc1 (stereo unspecified) | active: 14.7 µM
10 | Cc1cc(C)cc(Nc2nc(-c3ccc(S(=O)(=O)N4CCCC4)cc3)cs2)c1 | inconclusive: 18.5 µM [inhibitor, single point]
11 | CSC1=NCCN1C(=O)c1ccc2c(c1)OCO2 | inconclusive: 11.7 µM [inhibitor, partial curve, poor fit]
12 | CC(C)C(=O)NC(c1ccc(Cl)cc1Cl)c1ccc2cccnc2c1O (stereo unspecified) | inconclusive: 1.17 µM [inhibitor, partial curve, poor fit]
13 | O=S(=O)(NCc1csc(-c2ccccc2)n1)c1ccc(Cl)s1 | inactive
14 | Cc1c(C)n(Cc2ccccc2)c2ccc(C(=O)OCCCN(C)C)cc12 | inconclusive: 3.29 µM [inhibitor, full curve, poor fit]
15 | CC1CCN(C(=O)CN(c2ccc3c(c2)OCCO3)S(=O)(=O)c2ccccc2)CC1 | inconclusive: 20.8 µM [inhibitor, partial curve, poor fit]
16 | Cn1c(N)c(C(=O)COC(=O)C2(c3ccc(F)cc3)CCCC2)c(=O)n(C)c1=O | active: 4.15 µM
17 | CN(C(=O)COc1nnc(-c2cccs2)c(-c2cccs2)n1)c1ccccc1 | inconclusive: 10.4 µM [inhibitor, single point]
18 | O=C(NCc1nc2ccccc2[nH]1)C1=C[C@H](C2CCCCC2)C[C@H](OCc2ccc(CO)cc2)O1 | inconclusive: 8.28 µM [inhibitor, partial curve, poor fit]
19 | CCCC(C)NC(=O)c1nc(-c2ccccc2)n(-c2ccccc2)n1 (stereo unspecified) | inconclusive: 18.5 µM [inhibitor, single point]
20 | O=C1Nc2ccc(Cl)cc2C(C#CC2CC2)(C(F)(F)F)O1 (stereo unspecified) | inactive and inconclusive: 18.5 µM [inhibitor, single point]
21 | Cc1ccc(N(C(=O)c2snc(C(N)=O)c2N)C(C(=O)NCC2CCCO2)c2ccc(C)o2)c(C)c1 (stereo unspecified) | inconclusive: 10.4 µM [inhibitor, single point]

Row | SMILES | Potency
22 | CC1CCCC(NC(=O)c2cccc(S(=O)(=O)NCc3ccccc3)c2)C1C (stereo unspecified) | inconclusive: 10.4 µM [inhibitor, single point]
23 | COc1ccc(CCNC(=O)CCCCCNc2nc(=S)[nH]c3ccccc23)cc1OC | inconclusive: 10.4 µM [inhibitor, partial curve]
24 | O=C(CCN1C(=O)/C(=C/c2ccc(F)cc2)SC1=S)NCCc1ccc(O)cc1 | inactive
25 | Cn1c(=O)cc(SCC(=O)N2CCCC2)c2ccc(Cl)cc21 | inconclusive: 9.28 µM [inhibitor, partial curve, poor fit]
26 | CC(C)OP(=O)(OC(C)C)C(O)c1cccc([N+](=O)[O-])c1 (stereo unspecified) | inconclusive: 18.5 µM [inhibitor, single point]
27 | COc1cc(C(CC(=O)Nc2ccccn2)N2Cc3ccccc3C2=O)cc(OC)c1OC (stereo unspecified) | inconclusive: 18.5 µM [inhibitor, single point]
28 | CCOC(=O)c1c(NC(=O)CSc2nnc(-c3c[nH]c4ccccc34)n2CC)sc2c1CCCC2 | inconclusive: 11.7 µM [inhibitor, single point]
29 | Cc1ccccc1NC(=O)C1C2CCCC1C2c1ccccc1 (stereo unspecified) | inactive
30 | Cn1c2ccccc2c2nnc(NN)nc21 | inactive
31 | CC(C)(C)NC(=O)CSc1nc(N)cc(=O)[nH]1 | inconclusive: 0.0026 µM [inhibitor, full curve, poor fit]
32 | CC1CN(C(=O)c2ccccc2)OC(c2ccc3c(c2)OCO3)O1 (stereo unspecified) | inconclusive: 0.0828 µM [inhibitor, full curve, poor fit]
33 | O=C(Nc1ccccc1)Nc1ccc(F)c([N+](=O)[O-])c1 | inconclusive: 11.7 µM [inhibitor, single point]
34 | CCN1C(=O)Cc2cc(S(=O)(=O)NCCc3ccccc3)ccc21 | inconclusive: 14.7 µM [inhibitor, single point]
35 | O=C(NCCn1ccc2ccccc21)c1ccc2c(c1)OCO2 | inactive
36 | CS(=O)(=O)c1ccc(C(=O)OCc2nnc(-c3ccc(Cl)cc3)o2)cc1[N+](=O)[O-] | inactive
37 | CCOc1ccc(S(=O)(=O)NCCN2CCOCC2)c2ccccc12 | inconclusive: 9.28 µM [inhibitor, single point]
38 | Cc1ccc(C(=O)N2CCN(c3ccc(NC(=O)c4ccc(Br)o4)cc3)CC2)cc1 | active: 10.4 µM
39 | CC(C)n1nc(C(=O)Nc2cccc(S(=O)(=O)N3CCOCC3)c2)c2ccccc2c1=O | inconclusive: 14.7 µM [inhibitor, partial curve]
40 | O=C(Nc1ncc(Cc2ccc(C(F)(F)F)cc2)s1)c1ccc(-c2cccc([N+](=O)[O-])c2)o1 | inconclusive: 10.4 µM [inhibitor, single point]
41 | Cn1c(CN2CCCCC2)nc2cc(NC(=O)c3ccccc3Cl)ccc21 | inconclusive: 18.5 µM [inhibitor, single point]
